The supplement of paper PMC6531468
The list shows a part of the results. Read counts after selection give these values, which scatter widely. Each score is taken over the longer molecules that contain the sequence shown.

How the values were obtained:
Experiment in all cases: 6-mer SELEX enrichment z-score vs GST control; IMP3 is the RNA-binding protein IGF2BP3; higher = more enriched by binding
IMP3 KH1-4 = conditions: construct: KH1-4 (164-579); SELEX round: R4
Procedure: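 SELEX-seq with GST-tagged IMP3 KH1-4 (Pro164-Lys579) and an N40 RNA pool, round 4. 6-mer z-score of sequence-tag enrichment normalised to the corresponding GST SELEX round; RNA k-mers written as DNA (T for U).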

IMP3 RRM1-2 = conditions: construct: RRM1-2 (1-163); SELEX round: R2
Chain of IMP3 RRM1-2 (chain, as listed by the source): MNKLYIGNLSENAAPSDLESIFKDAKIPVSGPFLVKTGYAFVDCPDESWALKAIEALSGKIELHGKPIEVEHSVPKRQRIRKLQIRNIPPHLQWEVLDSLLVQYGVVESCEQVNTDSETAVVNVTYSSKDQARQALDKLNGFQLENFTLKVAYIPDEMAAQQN
Procedure: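 SELEX-seq with GST-tagged IMP3 RRM1-2 (Met1-Asn163) and an N40 RNA pool, round 2. 6-mer enrichment z-score normalised to GST SELEX. RNA written as DNA (T = U).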

IMP3 full-length = IMP3 full-length (UniProt O00425); conditions: construct: FL IMP3 (1-579); SELEX round: R4
Chain of UniProt O00425 (O00425 whole entry): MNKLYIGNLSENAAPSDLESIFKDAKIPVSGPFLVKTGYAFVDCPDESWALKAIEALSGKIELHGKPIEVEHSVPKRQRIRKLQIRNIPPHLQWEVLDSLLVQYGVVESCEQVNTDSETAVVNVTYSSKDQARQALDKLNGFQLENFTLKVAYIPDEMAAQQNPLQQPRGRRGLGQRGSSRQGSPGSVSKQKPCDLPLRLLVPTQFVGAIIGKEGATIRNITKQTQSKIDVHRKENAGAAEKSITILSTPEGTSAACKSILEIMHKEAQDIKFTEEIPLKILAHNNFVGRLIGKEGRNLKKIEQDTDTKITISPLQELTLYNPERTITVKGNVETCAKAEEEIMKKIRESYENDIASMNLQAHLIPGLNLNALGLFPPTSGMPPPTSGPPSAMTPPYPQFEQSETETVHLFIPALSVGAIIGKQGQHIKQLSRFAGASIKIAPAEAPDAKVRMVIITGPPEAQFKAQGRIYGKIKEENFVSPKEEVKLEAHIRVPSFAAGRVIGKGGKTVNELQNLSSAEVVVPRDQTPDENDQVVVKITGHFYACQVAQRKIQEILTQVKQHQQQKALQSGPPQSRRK
Procedure: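 SELEX-seq with GST-tagged full-length IMP3 and an N40 RNA pool, round 4. Each 6-mer is scored as an enrichment z-score of sequence tags containing it, normalised to the matching GST SELEX round. RNA written as DNA (T = U).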

IMP3 KH1-2 = conditions: construct: KH1-2 (164-376); SELEX round: R4
Chain of IMP3 KH1-2 (chain, as listed by the source): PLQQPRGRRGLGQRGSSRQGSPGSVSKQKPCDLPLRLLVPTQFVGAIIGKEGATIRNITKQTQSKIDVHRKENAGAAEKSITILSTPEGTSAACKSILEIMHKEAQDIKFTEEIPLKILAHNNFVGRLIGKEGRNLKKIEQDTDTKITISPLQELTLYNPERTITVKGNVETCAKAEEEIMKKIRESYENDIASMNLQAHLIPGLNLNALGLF
Procedure: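 SELEX-seq with GST-tagged IMP3 KH1-2 (Pro164-Phe376) and an N40 RNA pool, round 4 (stringent 300/600 mM KCl washes). 6-mer z-score of sequence-tag enrichment normalised to the corresponding GST SELEX round; RNA k-mers written as DNA (T for U).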

IMP3 KH3-4 = conditions: construct: KH3-4 (377-579); SELEX round: R4
Chain of IMP3 KH3-4 (chain, as listed by the source): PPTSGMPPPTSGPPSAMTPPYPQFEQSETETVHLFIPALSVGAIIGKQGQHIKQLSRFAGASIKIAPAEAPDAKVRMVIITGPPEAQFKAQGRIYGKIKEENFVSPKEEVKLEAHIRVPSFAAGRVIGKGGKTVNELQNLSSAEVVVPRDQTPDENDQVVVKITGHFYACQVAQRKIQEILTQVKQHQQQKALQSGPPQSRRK
Procedure: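 SELEX-seq with GST-tagged IMP3 KH3-4 (Pro377-Lys579) and an N40 RNA pool, round 4. 6-mer z-score of sequence-tag enrichment normalised to the corresponding GST SELEX round; RNA k-mers written as DNA (T for U).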

Chain of IMP3 KH1-4 (chain, as listed by the source): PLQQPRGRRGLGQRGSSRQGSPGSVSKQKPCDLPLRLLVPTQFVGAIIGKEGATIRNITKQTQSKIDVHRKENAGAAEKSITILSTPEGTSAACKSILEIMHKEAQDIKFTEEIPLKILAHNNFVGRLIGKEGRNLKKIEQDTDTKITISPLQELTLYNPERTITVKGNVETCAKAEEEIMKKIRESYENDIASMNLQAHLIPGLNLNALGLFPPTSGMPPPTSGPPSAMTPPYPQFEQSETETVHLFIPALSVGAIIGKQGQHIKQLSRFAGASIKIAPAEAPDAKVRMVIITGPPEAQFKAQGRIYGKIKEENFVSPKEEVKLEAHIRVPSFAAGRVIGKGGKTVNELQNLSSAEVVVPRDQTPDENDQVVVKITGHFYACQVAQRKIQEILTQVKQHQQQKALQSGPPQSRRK

Sequence	6-mer SELEX enrichment z-score (IMP3 KH1-4)	6-mer SELEX enrichment z-score (IMP3 RRM1-2)	6-mer SELEX enrichment z-score (IMP3 full-length)	6-mer SELEX enrichment z-score (IMP3 KH1-2)	6-mer SELEX enrichment z-score (IMP3 KH3-4)
AAGCCT	-0.934	-0.774	-0.953	-0.908	-0.937
CGAGAA	-1.43	-1.45	-1.1	-1.3	-0.981
CTGCGG	-0.163	0.07	0.242	-0.076	-0.12
GTTGTA	-0.103	0.227	-0.219	-0.156	0.047
TCGGCA	1.87	0.474	3.04	1.28	1.19
GTTTGG	-0.122	0.393	0.049	-0.027	0.127
ATGTCG	0.34	0.333	0.518	0.125	0.369
GTCGTC	-0.055	0.425	0.444	-0.088	-0.015
TCTAGT	0.069	0.398	0.066	0.048	0.121
TGAGTT	-0.131	0.112	-0.204	-0.14	0.072
TACGCA	0.587	0.378	0.395	0.511	0.218
GGGCAG	0.475	0.097	0.989	0.728	0.561
CGACTA	-0.617	-0.3	-0.701	-0.561	-0.643
AGAGAT	0.705	-0.718	-0.094	0.516	1.12
TAACGG	0.297	-0.477	-0.145	-0.019	0.49
TATGGG	0.557	0.211	0.227	0.434	0.78
CGACGG	-0.874	-0.536	0.024	-0.752	-0.882
ACAGTG	0.502	0.273	0.742	0.271	0.224
CAGGCA	2.04	1.25	3.1	1.35	1.5
AAGATG	0.791	-1.21	-0.664	0.448	1.27
TGGAGT	0.12	0.101	0.007	0.086	0.248
ACTACC	-0.699	-0.628	-1.05	-0.609	-1.08
CTAACT	0.316	-0.274	-0.474	0.344	0.283
GCGGAT	-0.251	0.027	0.109	-0.184	-0.066

Sequence	6-mer SELEX enrichment z-score (IMP3 KH1-4)	6-mer SELEX enrichment z-score (IMP3 RRM1-2)	6-mer SELEX enrichment z-score (IMP3 full-length)	6-mer SELEX enrichment z-score (IMP3 KH1-2)	6-mer SELEX enrichment z-score (IMP3 KH3-4)
GTAAAA	-0.681	-1.63	-1.55	-0.748	0.088
AGGACG	0.234	-0.638	0.237	0.081	0.109
GGCAAG	0.913	0.087	1.18	0.665	0.962
CACCCC	-0.425	-0.846	-0.88	-0.349	-1.66
GTGCTC	-0.396	0.313	0.099	-0.244	-0.248
TGCAAG	0.304	-0.103	0.058	0.132	0.219
CTACGG	-0.034	-0.127	0.105	-0.159	-0.134
GGCCTA	-0.02	-0.156	0.174	0.057	0.302
CTCCGA	-1.21	-0.632	-0.675	-0.949	-1.25
TATCCC	-0.558	-0.426	-0.908	-0.532	-0.889
GCACGC	1.19	0.606	1.67	0.971	0.402
ACACGA	-0.445	0.591	0.203	-0.308	-0.573
AGCCCA	-1.62	-0.595	-0.919	-1.43	-1.84
AATATG	1.74	-0.752	-0.008	1.27	2.39
TCTCTC	0.498	0.59	0.313	0.464	0.212
GGCCAA	0.669	-0.254	0.699	0.425	1.15
TAGATG	0.58	-0.306	-0.22	0.285	0.859
CTATCA	0.978	1.3	0.869	0.879	0.681
TCCGGG	-0.68	-0.127	0.111	-0.421	-0.441
TTCAGT	0.782	0.742	0.873	0.721	0.666
CATGAA	1.34	0.088	0.878	1.09	1.41
CACCGC	0.442	0.195	0.794	0.828	-0.517
CCTCCT	-0.091	0.001	-0.52	-0.083	-0.504
GAACGC	-1.1	-1.03	-0.809	-0.956	-1.18

Sequence	6-mer SELEX enrichment z-score (IMP3 KH1-4)	6-mer SELEX enrichment z-score (IMP3 RRM1-2)	6-mer SELEX enrichment z-score (IMP3 full-length)	6-mer SELEX enrichment z-score (IMP3 KH1-2)	6-mer SELEX enrichment z-score (IMP3 KH3-4)
GAAGAG	0.235	-1.12	-0.554	0.092	0.378
ATTAGG	0.712	0.308	0.357	0.559	1.03
GAAATG	0.478	-1.53	-0.937	0.107	1.06
GCAATG	0.585	-0.058	0.393	0.269	0.525
TTCGTG	-0.26	0.228	-0.232	-0.266	-0.108
AAAAAG	-1.55	-3.05	-3.07	-1.58	-0.155
GTCTCT	-0.197	0.62	0.329	-0.037	0.065
TGTGTC	-0.127	0.269	0.021	-0.115	-0.039
GCCACC	0.369	-0.21	0.645	0.283	-0.643
GACGCG	-1.22	-0.43	-0.633	-1.03	-1.08
AGAAGA	0.906	-1.35	-0.534	0.625	1.47
ATTGGG	-0.088	0.264	0.034	0.006	0.192
CCGCTT	0.018	-0.076	-0.071	0.282	-0.106
TCCTTA	0.795	-0.006	-0.095	0.683	0.68
GTACTA	-0.312	-0.12	-0.21	-0.31	-0.237
GGAAAC	-0.719	-1.2	-0.796	-0.797	-0.619
TAGCGC	-0.652	0.058	-0.158	-0.626	-0.511
ACGCTC	-0.366	0.1	-0.008	-0.258	-0.602
GCGATA	-0.247	-0.41	-0.138	-0.241	0.064
CTACAT	1.22	1.01	1.08	1.46	0.995
TGTGAC	0.288	-0.49	-0.379	0.001	0.022
AGCGAG	-2.07	-0.47	-0.63	-1.85	-1.65
GTAGTG	-0.647	0.287	-0.409	-0.586	-0.441
GCAGGT	0.371	0.391	0.616	0.302	0.262

Sequence	6-mer SELEX enrichment z-score (IMP3 KH1-4)	6-mer SELEX enrichment z-score (IMP3 RRM1-2)	6-mer SELEX enrichment z-score (IMP3 full-length)	6-mer SELEX enrichment z-score (IMP3 KH1-2)	6-mer SELEX enrichment z-score (IMP3 KH3-4)
TCCTAC	0.028	0.01	-0.372	-0.009	-0.315
CTGTAC	-0.011	-0.184	-0.048	-0.076	-0.345
AAGGTG	-0.045	-0.321	-0.156	-0.034	0.23
AGCCTG	-0.895	-0.466	-0.635	-0.867	-0.927
TTAATA	1.55	-0.12	0.195	1.42	2.42
TGCACG	0.954	-0.038	0.702	0.653	0.442
TTATCC	-0.03	-0.024	-0.453	-0.127	-0.286
ACAAAT	1.6	0.151	0.576	1.72	2.04
AATAAC	1.6	-0.973	-0.227	2	2.57
GGCCAC	1.43	0.456	1.7	1.14	0.97
CCCGGG	-1.45	-0.651	-0.481	-1.06	-1.32
TGTTGT	0.191	0.443	-0.028	0.063	0.267
ATGACT	0.602	-0.37	-0.38	0.473	0.716
TTCAGA	0.394	0.731	0.597	0.468	0.455
ACATGA	1.88	0.748	1.34	1.61	2.02
GTGGCC	0.111	-0.155	0.253	0.1	-0.144
CGCAGA	-0.415	-0.044	0.159	-0.274	-0.468
GTCTAA	-0.467	-0.214	-0.36	-0.484	-0.287
ATATCG	0.585	0.091	0.383	0.359	0.569
AGGAAA	0.722	-1.36	-0.583	0.304	1.16
CCACAG	-0.479	0.59	0.479	-0.293	-1.01
TAGTCG	0.545	0.393	0.484	0.362	0.479
GACGAT	-0.187	-0.898	-0.475	-0.346	-0.132
ATTGAT	1.21	-0.125	0.037	0.754	1.53

Sequence	6-mer SELEX enrichment z-score (IMP3 KH1-4)	6-mer SELEX enrichment z-score (IMP3 RRM1-2)	6-mer SELEX enrichment z-score (IMP3 full-length)	6-mer SELEX enrichment z-score (IMP3 KH1-2)	6-mer SELEX enrichment z-score (IMP3 KH3-4)
CCAGCT	-0.381	-0.01	-0.114	-0.325	-0.497
TGCTTT	0.403	0.348	0.111	0.459	0.518
AACCTA	-1.42	-1.07	-1.93	-1.46	-1.57
GTCTTG	-0.492	0.514	-0.065	-0.376	-0.244
ACCCTA	-1.43	-0.898	-1.48	-1.46	-1.75
CTACGC	-0.226	0.014	-0.267	-0.171	-0.377
TTCTAC	0.486	0.381	-0.001	0.54	0.351
TGAAAG	-0.177	-1.19	-0.909	-0.375	0.319
CACGTT	-0.056	0.22	0.151	-0.211	-0.232
TCGCAT	0.748	0.546	0.766	0.538	0.422
TGCACA	1.85	1.1	1.5	1.67	1.03
CTGTTA	0.297	-0.035	-0.087	0.25	0.191
CTCTCA	0.081	0.729	0.296	0.174	-0.215
GAAAGA	0.058	-2.2	-1.28	-0.131	0.86
GAGTAG	-0.462	0.003	-0.279	-0.374	-0.238
GGAAGC	-0.328	-0.427	-0.191	-0.213	-0.276
GGCGCA	0.242	0.431	1.45	0.234	0.346
GGATCC	-0.461	-0.239	-0.241	-0.38	-0.67
GGGCGA	-0.871	-0.145	0.143	-0.518	-0.45
TATCAG	0.619	0.713	0.639	0.542	0.577
GTTCAT	0.729	0.696	0.852	0.693	0.647
ACCTGA	-1.98	-1.24	-1.97	-1.84	-2.04
GTCGCC	0.457	0.177	0.627	0.36	-0.029
TATTGG	0.269	0.335	0.171	0.253	0.444
